# Test results published in PubChem BioAssay AID2147 (National Center for Advancing Translational Sciences (NCATS), 2009).
# Screen size: about 230,000 compounds; about 3,600 (1.6%) were called active. The inconclusive results got no clear call from the source; some entries with a clear call stand among them for comparison. Calls come from the whole dose curve; as a rule, active = well fitted inhibition curve with a large enough effect (not every such curve was filed as active); inconclusive = small, poorly fitted or top-dose-only effect, or another doubt; inactive = no such curve, though single readings can be large or run the other way. A potency beside an inconclusive call is a rough fit, not a confirmed value. The source holds several records for some structures; these can differ, active in one and inactive in another.
# Molecular target: Lysine-specific demethylase 4E (Homo sapiens) (UniProt B2RXH2)
# Chain of UniProt B2RXH2 (B2RXH2 whole entry, looked up, the tested form may be a part): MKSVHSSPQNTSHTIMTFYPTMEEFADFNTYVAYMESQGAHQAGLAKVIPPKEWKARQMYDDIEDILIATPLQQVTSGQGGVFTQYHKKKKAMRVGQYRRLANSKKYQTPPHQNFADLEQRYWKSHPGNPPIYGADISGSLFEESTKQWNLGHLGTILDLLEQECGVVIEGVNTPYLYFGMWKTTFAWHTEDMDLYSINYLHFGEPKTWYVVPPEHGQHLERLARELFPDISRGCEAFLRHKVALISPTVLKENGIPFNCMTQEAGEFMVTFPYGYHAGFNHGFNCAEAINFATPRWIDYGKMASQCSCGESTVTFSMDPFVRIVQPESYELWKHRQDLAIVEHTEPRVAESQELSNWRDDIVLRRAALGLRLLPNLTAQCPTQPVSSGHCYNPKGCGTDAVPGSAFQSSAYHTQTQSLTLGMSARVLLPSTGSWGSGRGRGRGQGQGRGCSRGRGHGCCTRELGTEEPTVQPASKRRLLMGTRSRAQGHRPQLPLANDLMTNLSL
# Assay: qHTS Assay for Inhibitors of Human Jumonji Domain Containing 2E (JMJD2E)
# Conditions: JMJD2E catalytic domain, FDH-coupled NADH fluorescence (FDH is formaldehyde dehydrogenase); series mostly up to 57.1 µM
# Note: nearly all actives have a fitted effect of over 50% in size.
# Potency is the fitted concentration of half-maximal effect; tags give direction and shape of the fitted curve.
row,Structure (SMILES),Potency
1,Cc1ccc(CC2CC(=O)N(c3ccncc3)C2=O)cc1 (centres undefined),inactive
2,Cc1ccc(C(C(=O)NCC2CCCO2)N(Cc2ccccc2)C(=O)c2ccc(-c3ccccc3)[nH]2)o1 (centres undefined),"inconclusive: 28.2 µM [inhibitor, partial curve]"
3,Cc1[nH]c2ccccc2c1Cc1nnc(SCC(=O)NCc2ccco2)o1,"inconclusive: 39.8 µM [inhibitor, single point]"
4,CNC(=O)c1cc2cc(OC)ccc2oc1=O,"inconclusive: 31.6 µM [inhibitor, partial curve]"
5,CCOC(=O)C1/C(=N\O)CC(C)(O)C(C(=O)OCC)C1c1ccc(N(C)C)cc1 (centres undefined),"inconclusive: 25.1 µM [inhibitor, single point]"
6,O=C(O)CCc1ccc(-c2ccc(Br)cc2)n1CC(=O)O,"inconclusive: 35.5 µM [inhibitor, single point]"
7,CCOc1ccccc1-c1nc2c([nH]1)c(=O)n(C)c(=O)n2C,"inconclusive: 8.91 µM [inhibitor, partial curve]"
8,COC(=O)c1cc(C(=O)OC)cc(N2C(=O)CN=C2Nc2nc(C)cc(C)n2)c1,"inconclusive: 2.24 µM [inhibitor, partial curve]"
9,COc1ccccc1-c1nnc(-c2ccc(N3CCOCC3)cc2)o1,"inconclusive: 28.2 µM [inhibitor, partial curve]"
10,CCCCCn1c(=O)[nH]c2cc(C(=O)NCCCN3CCC(C)CC3)ccc2c1=O,"inconclusive: 28.2 µM [inhibitor, single point]"
11,COC(=O)/C(=C1/OC(=O)C(c2ccccc2)=C1O)c1ccccc1,inactive
12,CCc1c(-c2ccccc2)nc(N)c(C#N)c1-c1cccs1,"inconclusive: 28.2 µM [inhibitor, single point]"
13,c1ccc(-c2ccccc2OCCCCN2CCCCC2)cc1,"inconclusive: 22.4 µM [inhibitor, single point]"
14,Cc1cc(C)[n+](-c2ccc(C(C)C)cc2)c2[nH]c(=O)[nH]c(=O)c12,"inconclusive: 28.2 µM [inhibitor, partial curve]"
15,O=C(C1=C(O)C(=O)N(c2ncccn2)C1c1cccc(Cl)c1)c1ccco1 (centres undefined),"inconclusive: 25.1 µM [inhibitor, single point]"
16,CC(C)[C@H](NC(=O)c1ccccc1)C(=O)OCC(=O)/C=C1/N(C)c2ccccc2C1(C)C,"inconclusive: 31.6 µM [inhibitor, single point]"
17,CCCn1c(N)c(C(=O)CSc2nc3ccccc3c(=O)n2-c2ccc(OC)cc2)c(=O)[nH]c1=O,"inconclusive: 39.8 µM [inhibitor, single point]"
18,CCOC(=O)c1cn2nc(Oc3cccc(C(F)(F)F)c3)ccc2n1,"inconclusive: 28.2 µM [inhibitor, partial curve]"
19,Cc1ccc(C(=O)/C=C\C(=O)c2ccc(C)cc2)cc1,inactive
20,COc1cccc(N2C(=O)[C@H]3C(C(=O)c4cnccn4)=NN[C@H]3C2=O)c1,"inconclusive: 39.8 µM [inhibitor, single point]"
21,CCCCOC(=O)CSc1nc(N)c(C#N)c(-c2ccc(OCC)cc2)c1C#N,"inconclusive: 39.8 µM [inhibitor, single point]"
22,c1ccc2c(c1)oc1c(Nc3ccc4c(c3)OCO4)ncnc12,"inconclusive: 12.6 µM [inhibitor, partial curve]"
23,COc1cc(/C=N/NC(N)=S)ccc1OCC(=O)Nc1ccc(C)c(C)c1,"inconclusive: 35.5 µM [inhibitor, single point]"

row,Structure (SMILES),Potency
1,Cc1ccc(-c2nc3ncccc3o2)cc1NC(=O)c1cccnc1,"inconclusive: 25.1 µM [inhibitor, partial curve]"
2,O=c1cc(-c2ccc(Cl)cc2)[nH][nH]1,"inconclusive: 1.41 µM [inhibitor, full curve, poor fit]"
3,c1ccc2c(c1)nc(Nc1ccc(N3CCCCC3)cc1)c1nncn12,inactive
4,COc1ccc(Cc2nnc(N=Nc3c(O)[nH]c4ccc(Br)cc34)[nH]c2=O)cc1,inactive
5,CCCCN(C)C(=O)c1nc2ccccn2c1CN1CCN(c2ccccn2)CC1,"inconclusive: 39.8 µM [inhibitor, single point]"
6,Cn1nnc2cc(C(=O)Nc3ccc4ccccc4c3)ccc21,"inconclusive: 35.5 µM [inhibitor, single point]"
7,O=C(O)c1ccccc1-c1nc2cc(Cl)ccc2c(=O)n1O,inactive
8,Cn1c(N/N=C/c2cccs2)cc(=O)n(C)c1=O,"inconclusive: 28.2 µM [inhibitor, single point]"
9,Cc1ccccc1Nc1nc(N)nc(CSc2nnnn2C)n1,inactive
10,Cc1ccc(C(=O)NC(=S)Nc2c(C)ccc3nsnc23)cc1,inactive
11,COc1ccccc1NC(=O)Cc1csc(NC(=O)c2ccccc2)n1,"inconclusive: 31.6 µM [inhibitor, single point]"
12,COC(=O)[C@@]1(Cc2ccc(OC)cc2)[C@H]2c3cc(C(=O)N4CCCC4)n(CCc4c[nH]c5ccc(O)cc45)c3C[C@H]2CN1C(=O)c1ccccc1,"inconclusive: 39.8 µM [inhibitor, single point]"
13,COc1ccc(C(=O)c2sc3nc(-c4ccccc4)ccc3c2N)cc1,inactive
14,COc1ccc(C(=O)NCc2nnc(SCC(=O)NO)n2Cc2ccccc2)cc1,inactive
15,O=C(NNC(=O)c1ccc(NC(=O)c2ccccc2)cc1)Nc1ccccc1,"inconclusive: 14.1 µM [inhibitor, partial curve]"
16,Cc1ccc(O)c(CC(C)C)n1,"inconclusive: 35.5 µM [inhibitor, single point]"
17,CCC(=O)c1ccccc1OCCN1CCN(CC)CC1,"inconclusive: 25.1 µM [inhibitor, single point]"
18,O=C(NNC(=O)c1ccc(F)cc1F)c1ccc2c(c1)OCO2,"inconclusive: 25.1 µM [inhibitor, single point]"
19,O=C(O)c1cc(S(=O)(=O)O)ccc1O,"inconclusive: 28.2 µM [inhibitor, partial curve]"
20,Cc1cc(C)n2ncc(C(=O)NC3CCCCC3)c2n1,"inconclusive: 12.6 µM [inhibitor, partial curve]"
21,CCOC(=O)c1ccccc1NS(=O)(=O)c1ccc(OCC)cc1,"inconclusive: 28.2 µM [inhibitor, single point]"
22,CCOc1ccc(S(=O)(=O)N2CCCCCC2)cc1,inactive
23,COCCOc1ccc(C(F)(F)F)cc1NC(=O)c1ccc(C(F)(F)F)cc1,"inconclusive: 31.6 µM [inhibitor, single point]"

row,Structure (SMILES),Potency
1,COc1ccc2c(Cl)c(C(=O)N/N=C/c3ccc4c(c3)OCO4)sc2c1,"inconclusive: 12.6 µM [inhibitor, partial curve]"
2,CCN(CC)S(=O)(=O)c1ccc(NC(=O)CSc2cccc[n+]2[O-])cc1,"inconclusive: 35.5 µM [inhibitor, single point]"
3,COc1ccc(C)cc1S(=O)(=O)Nc1ccccc1,inactive
4,O=C(NCCNC1CCN(Cc2ccccc2)CC1)c1cccs1,"inconclusive: 28.2 µM [inhibitor, single point]"
5,CCCc1cc(=O)oc2cc(C)c3c(C)coc3c12,"inconclusive: 20 µM [inhibitor, partial curve]"
6,CCOc1ccc2oc(-c3ccccc3)c(C(=O)N3CCN(C)CC3)c2c1,"inconclusive: 31.6 µM [inhibitor, partial curve]"
7,C=CCn1c(SCc2cc(=O)n3ccsc3n2)nc2cc(Cl)ccc2c1=O,"inconclusive: 8.91 µM [inhibitor, single point]"
8,C=CCSc1nnc(-c2cc3c(-c4ccccc4)nn(C)c3s2)n1C,"inconclusive: 31.6 µM [inhibitor, partial curve]"
9,CCCC(C)C(=O)OCC(=O)NCc1ccc(OC)c(OC)c1 (centres undefined),inactive
10,CC1CCN(C(=O)c2cc(-c3ccc(Cl)c(Cl)c3)on2)CC1,inactive
11,CN(CCCC[C@H](CNCc1ccc(-c2ccccc2)cc1)N1C[C@H](c2ccccc2)N(CCc2ccc(Cl)c(Cl)c2)C(=O)C1=O)Cc1ccc(-c2ccccc2)cc1,"inconclusive: 39.8 µM [inhibitor, single point]"
12,Oc1ccccc1Cn1c(-c2ccccc2O)nc2ccccc21,"inconclusive: 31.6 µM [inhibitor, partial curve]"
13,COc1ccc(/C=N/NC(=O)c2cccc(NC(=O)c3ccccc3Cl)c2)cc1OC,inactive
14,COc1ccc2oc(C(=O)OCC(=O)NC(=O)NC(C)C)c(C)c2c1,"inconclusive: 31.6 µM [inhibitor, partial curve]"
15,Cc1nnc(SCC(=O)NC2CCCCC2C)s1 (centres undefined),inactive
16,COc1ccccc1OCCNCC(O)COc1cccc2[nH]c3ccccc3c12 (centres undefined),active: 25.1 µM
17,COc1ccc(CCn2c(=N)c(C(=O)NCc3ccco3)cc3c(=O)n4ccccc4nc32)cc1,"inconclusive: 25.1 µM [inhibitor, partial curve]"
18,Cc1ccc(C(=O)c2coc3ccc(O)c(Cl)c23)cc1,inactive
19,Cn1c(SCC(=O)c2ccccc2)nnc1-c1ccco1,inactive
20,O=C(CC1C(=O)NCCN1Cc1ccc(F)cc1)NCCOc1cccnc1 (centres undefined),"inconclusive: 28.2 µM [inhibitor, single point]"
21,Cc1cccc(-c2nsc(SCC(=O)Nc3ccc4c(c3)OCO4)n2)c1,inactive
22,CN(C)c1ccc(-c2nc3cnccn3c2Nc2ccc3c(c2)OCCO3)cc1,"inconclusive: 25.1 µM [inhibitor, single point]"
23,O=C(Nc1ccc(N2CCOCC2)cc1)c1cccc(S(=O)(=O)N2CCCCCC2)c1,"inconclusive: 39.8 µM [inhibitor, single point]"
